“And” between values parts separate entries of the source, which are not always exact repeats. Equal entries are not always repeated. Hit rate of the full screen: of about 400,000 compounds, about 2,200 (0.55%) were called active. About 1% were inconclusive and are not listed. The call rests on the fitted dose curve; in most records, active means well fitted inhibition curve with a large enough effect; inconclusive means small, poorly fitted or top-dose-only effect, or another doubt; inactive means no such curve, though single readings can be large or run the other way. The list shows a part of the results, in another mix than the full data. Some structures have more than one record in an assay (separate samples or runs), and their calls can disagree.
On the % scale 0 is the no-effect control and ±100 the full control effect; potency means the concentration at half of the fitted maximal effect.

This test addresses DNA polymerase kappa (Homo sapiens) (UniProt Q9UBT6). In words: qHTS for Inhibitors of Polymerase Kappa. The settings on record: purified Pol kappa, fluorescent DNA synthesis assay, 10 min; series mostly up to 107 µM; activity, negative = inhibition: at the top concentration. A digest of the protocol: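 Activity was followed as the change in fluorescence between reads at 0 and 10 min after starting the reaction with 50 nM substrate. Beforehand, 10 nM polymerase had been preincubated with compound for 15 min at room temperature.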
Sequence of UniProt Q9UBT6 (Q9UBT6 whole entry, looked up): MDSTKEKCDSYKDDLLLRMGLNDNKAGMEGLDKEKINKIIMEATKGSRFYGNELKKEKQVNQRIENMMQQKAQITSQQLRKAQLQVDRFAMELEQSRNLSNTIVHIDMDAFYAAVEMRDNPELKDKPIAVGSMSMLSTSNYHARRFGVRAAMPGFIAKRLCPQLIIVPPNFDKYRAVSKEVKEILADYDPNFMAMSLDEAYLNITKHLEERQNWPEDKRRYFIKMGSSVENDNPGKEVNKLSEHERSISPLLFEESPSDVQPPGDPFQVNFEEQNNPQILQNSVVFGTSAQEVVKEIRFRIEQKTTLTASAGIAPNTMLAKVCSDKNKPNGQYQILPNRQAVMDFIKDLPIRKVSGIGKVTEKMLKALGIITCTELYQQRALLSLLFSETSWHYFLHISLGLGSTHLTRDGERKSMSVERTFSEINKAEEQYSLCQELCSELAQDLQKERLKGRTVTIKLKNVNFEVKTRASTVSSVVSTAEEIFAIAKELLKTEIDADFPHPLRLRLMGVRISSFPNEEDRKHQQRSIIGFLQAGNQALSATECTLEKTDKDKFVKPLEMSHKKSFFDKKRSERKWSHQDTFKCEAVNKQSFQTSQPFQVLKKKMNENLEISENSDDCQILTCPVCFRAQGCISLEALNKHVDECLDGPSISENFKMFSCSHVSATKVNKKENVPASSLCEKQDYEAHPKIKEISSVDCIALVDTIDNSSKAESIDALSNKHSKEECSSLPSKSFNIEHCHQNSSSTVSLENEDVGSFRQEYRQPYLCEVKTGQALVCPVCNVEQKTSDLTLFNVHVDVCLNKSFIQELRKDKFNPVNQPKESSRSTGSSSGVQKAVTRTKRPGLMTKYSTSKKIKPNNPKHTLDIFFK
Background: In qHTS, concentration-response curves come from the screen itself.
Take `Clc1ccc(N2CCN(Cc3c[nH]c4ncccc34)CC2)cc1`: the Potency entry was “inactive”.

Consider `CC[C@H](C)[C@H](NC(=O)[C@H](Cc1ccc(O)cc1)NC(=O)[C@@H]1CCCN1C(=O)[C@H](CCCCN)NC(=O)[C@@H](N)CCCCN)C(=O)N[C@@H](CC(C)C)C(=O)O`, for which the “activity, negative = inhibition” value is inactive: 17.6% [at 60.1 µM].

In the case of `CC(C)(C)c1ccc(C(O)CCCN2CCC(C(O)(c3ccccc3)c3ccccc3)CC2)cc1` (stereo not drawn), the Potency entry is “inactive”.

Turning to `Cc1cc(=O)oc2c(O)c(O)ccc12`, the “activity, negative = inhibition” value was inactive: 12.2%.

Regarding `COC(=O)C(N)Cc1ccc(O)c(O)c1` (stereo not drawn), the Potency is active: 89.1 µM.

Turning to `CC(C)S(=O)(=O)C1=NSC2=NC(=O)/C(=C\c3ccc(-c4cccc(C(=O)O)c4)o3)C(=N)N21`, the Potency was active: 28.2 µM.

Turning to `COc1cc(-c2noc(C)c2C#Cc2ccsc2)cc(OC)c1OC`, the “activity, negative = inhibition” value was inactive: -4.66%.

Consider `CN(C)CCCN1c2ccccc2Sc2ccc(Cl)cc21`, for which the Potency entry was “inactive”.

Take `N[C@H](Cc1cc(I)c(Oc2cc(I)c(O)c(I)c2)c(I)c1)C(=O)O`: the activity, negative = inhibition was inactive: -16.8% [at 12 µM].

`CCN(CC)C(C)CN1c2ccccc2Sc2ccccc21` (stereo not drawn): the “activity, negative = inhibition” value is inactive: -1.15% [at 60.1 µM].

Regarding `Cc1ncc(CO)c(C=O)c1O`, the Potency entry is “inactive”.

As to `CC(C)(C)[C@]1(O)CCN2CC3c4ccccc4CCc4cccc(c43)[C@@H]2C1` (stereo partly drawn), the activity, negative = inhibition was inactive: -10.8% [at 19.4 µM].

As for `CN(C)S(=O)(=O)c1ccc2c(c1)/C(=C/c1cc3c([nH]1)CCCC3)C(=O)N2`, the Potency entry is “inactive”.

Turning to `C=CCCN(C1CCCC1)S(=O)(=O)c1ccccc1Br`, the “activity, negative = inhibition” value is inactive: 7.97%.

For the compound `COC(=O)/C(C(C)=O)=C(/C=C/C=C/N(C)C)N(C)C`, the “activity, negative = inhibition” value is inactive: -17.5%.

`Oc1cc2c(cc1O)C1c3ccc(O)c(O)c3OCC1(O)C2` (stereo not drawn): the Potency was active: 22.4 µM and active: 14.1 µM and active: 178 nM.

For `CCC(C)Nc1ccc(NC(C)CC)cc1` (stereo not drawn), the “activity, negative = inhibition” value is inactive: -0.373%.

Take `CSCC(=O)N1CCC(n2nccc2NC(=O)c2ccc3c(c2)OCO3)CC1`: the Potency is active: 79.4 µM.

As to `C[C@H]1c2cccc(O)c2C(O)=C2C(=O)[C@]3(O)C(O)=C(C(N)=O)C(=O)[C@@H](N(C)C)C3[C@@H](O)C21` (stereo partly drawn), the “activity, negative = inhibition” value was inactive: -6.13%.

For `CCCCCCCCCCCCCCCC[n+]1ccc(CC(O)c2c(C)[nH]c3ccccc23)c2ccccc21` (stereo not drawn), the “activity, negative = inhibition” value was inactive: 64.1%.

As to `Nc1ccc2nc[nH]c2c1`, the “activity, negative = inhibition” value was inactive: -21%.

`C=C1C(=O)O[C@@H]2C3OC3(C)CC/C=C(\C)CC[C@@H]12` (stereo partly drawn): the activity, negative = inhibition is inactive: -6.53% [at 19.4 µM].

In the case of `NC[C@@H]1O[C@H](C23CC4CC(CC(C4)C2)C3)Cc2c1ccc(O)c2O`, the Potency result is “inactive”.

Consider `COc1cccc2c1C(=O)c1c(O)c3c(c(O)c1C2=O)C[C@@](O)(C(=O)CO)C[C@@H]3OC1CC(N)C(O)C(C)O1` (stereo partly drawn), for which the Potency was active: 10.6 µM.

Turning to `CCCCC(CC)COC(=O)CC(C(=O)OCC(CC)CCCC)S(=O)(=O)O` (stereo not drawn), the activity, negative = inhibition is inactive: -17.4% [at 19.4 µM].

For the compound `C[C@H](O)CC(=O)O`, the Potency result is “inactive”.

For the compound `CC1=N/C(=C/c2ccco2)C(=O)O1`, the Potency was active: 50.1 µM.

With `CCN(CC)[C@@H](C)CN1c2ccccc2Sc2ccccc21`, the activity, negative = inhibition was inactive: -16.8% [at 19.4 µM].

With `COc1cc(/C=C/C(=O)/C=C(O)/C=C/c2ccc(O)c(OC)c2)ccc1O`, the Potency entry is “inactive”.

For `CCOC(=O)[C@H]1O[C@@H]1C(=O)N[C@@H](CC(C)C)C(=O)NCCC(C)C`, the “activity, negative = inhibition” value is inactive: -6.78%.

On to `COc1ccc(CCNC(=O)c2ccc(CS(=O)(=O)c3ccc(C)cc3)o2)cc1OC`, for which the “activity, negative = inhibition” value is inactive: -5.85%.

Consider `Cc1ccc(C)c(S(=O)(=O)Nc2ccc3oc(C)c(C(=O)O)c3c2)c1`, for which the Potency is active: 79.4 µM.

Take `CCOC(=O)C1C(C(=O)OC)=C(C2=CCCCC2)c2ccccc2N1S(=O)(=O)C(F)(F)F` (stereo not drawn): the “activity, negative = inhibition” value is inactive: -9.53%.

In the case of `CN(C)c1ccc2cc(S(=O)(=O)O)cc(O)c2c1`, the Potency was active: 31.6 µM.

As to `CNCC(O)c1ccc(O)c(O)c1` (stereo not drawn), the Potency result was “inactive”.

Take `C=CCn1c(=O)n(C2OC(CO)C(O)C2O)c2nc(N)[nH]c(=O)c21` (stereo not drawn): the “activity, negative = inhibition” value was inactive: 14.4% [at 60.1 µM].

As to `NC(=O)c1ccc(-n2nnnc2SCC(=O)c2ccc(O)c(O)c2)cc1`, the Potency was active: 25.1 µM.

Regarding `C=C1C(c2ccc(C)cc2)=CCc2cc(C)cc(C)c21`, the Potency result is “inactive”.

As to `CCCC1OC2CC3C4CCC5=CC(=O)C=CC5(C)C4C(O)CC3(C)C2(C(=O)CO)O1` (stereo not drawn), the “activity, negative = inhibition” value was inactive: -14% [at 60.1 µM].

Take `CCOC(=O)C1=C(C)NC(=S)NC1c1cccc(O)c1` (stereo not drawn): the Potency entry is “inactive”.

Consider `O=C1C(=Cc2ccco2)CCC1=Cc1ccco1`, for which the Potency is active: 5.01 µM.

For the compound `COc1cc(OC)c2ccc(=O)oc2c1C(CC(=O)N1CCCC1)c1ccc2c(c1)OCO2` (stereo not drawn), the Potency was active: 79.4 µM and active: 50.1 µM.

Consider `COc1cc(C(CCN2CCOCC2)c2c(OC)cc(OC)c3c(-c4ccccc4)cc(=O)oc23)cc(OC)c1OC` (stereo not drawn), for which the “activity, negative = inhibition” value is inactive: -7.03%.

The values are drawn from PubChem BioAssay AID588579 (National Center for Advancing Translational Sciences (NCATS), 2011).
